Screen size: about 310,000 compounds; about 2,200 (0.71%) showed an effect of 50% or more. Effects have a minus sign here. The list shows a part of the results.

human ether-à-go-go-related gene (hERG) potassium channel, sequence (Q12809 whole entry, looked up): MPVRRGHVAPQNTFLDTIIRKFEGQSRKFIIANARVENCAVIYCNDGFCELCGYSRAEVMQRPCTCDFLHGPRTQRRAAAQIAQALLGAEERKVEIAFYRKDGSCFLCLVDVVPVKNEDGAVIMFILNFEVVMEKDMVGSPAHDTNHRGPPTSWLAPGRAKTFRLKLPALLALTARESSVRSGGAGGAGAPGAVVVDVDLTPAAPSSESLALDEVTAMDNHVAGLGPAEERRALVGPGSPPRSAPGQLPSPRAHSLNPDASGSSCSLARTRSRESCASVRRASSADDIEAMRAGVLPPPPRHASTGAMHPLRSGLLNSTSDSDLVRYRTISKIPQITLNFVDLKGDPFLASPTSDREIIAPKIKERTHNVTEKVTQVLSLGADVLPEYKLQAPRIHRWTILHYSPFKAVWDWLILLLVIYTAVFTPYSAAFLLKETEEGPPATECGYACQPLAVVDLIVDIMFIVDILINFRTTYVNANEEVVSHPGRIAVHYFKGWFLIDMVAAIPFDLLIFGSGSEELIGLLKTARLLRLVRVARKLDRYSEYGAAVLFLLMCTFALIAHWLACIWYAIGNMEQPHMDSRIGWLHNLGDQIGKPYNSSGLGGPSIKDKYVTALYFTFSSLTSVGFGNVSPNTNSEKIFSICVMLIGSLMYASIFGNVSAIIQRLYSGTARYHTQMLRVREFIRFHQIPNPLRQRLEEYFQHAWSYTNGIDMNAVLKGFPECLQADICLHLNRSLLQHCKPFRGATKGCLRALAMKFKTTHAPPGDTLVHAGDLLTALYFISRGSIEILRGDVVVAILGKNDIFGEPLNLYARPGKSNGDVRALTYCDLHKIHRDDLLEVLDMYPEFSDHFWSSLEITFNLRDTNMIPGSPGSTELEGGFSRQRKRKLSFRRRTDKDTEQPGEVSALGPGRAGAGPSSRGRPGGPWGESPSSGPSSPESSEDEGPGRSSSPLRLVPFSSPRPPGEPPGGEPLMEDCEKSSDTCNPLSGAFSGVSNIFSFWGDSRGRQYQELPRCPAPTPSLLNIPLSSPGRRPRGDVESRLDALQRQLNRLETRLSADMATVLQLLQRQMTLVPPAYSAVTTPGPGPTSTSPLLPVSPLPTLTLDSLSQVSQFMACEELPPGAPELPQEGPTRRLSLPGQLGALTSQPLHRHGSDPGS

The experiment concerns the target human ether-à-go-go-related gene (hERG) potassium channel (human, UniProt Q12809). Put plainly: primary screen, population patch clamp on CHO cells stably expressing hERG.
Take `Cc1cc(C)c2c(N)c(C(=O)NCC3CCCCC3)sc2n1`: the “hERG current change (%, negative = inhibition) at 1uM” value was 13.6%.
Consider `CCOC(=O)N1CCc2c(sc3ncn(C)c(=O)c23)C1`, for which the “hERG current change (%, negative = inhibition) at 1uM” value is 10.5%.
For `Cn1c(=O)c2c(nc(NNC(=O)C(F)(F)F)n2C)n(C)c1=O` the value was 10.6%; for `O=C(CSc1ncnc2c1cnn2-c1ccccc1Cl)N1CCN(C(=O)c2ccco2)CC1`, -35.2%.
For `O=C(Nc1ccc(S(=O)(=O)N2CCCC2)cc1)c1ccc(Cl)nc1` the value was 8.31%; for `CCCOC(=O)C(C)n1c(-c2ccccc2)nc2ccccc2c1=O` (stereo not drawn), 9.2%.
For `CCN(C(=O)CSc1ncnc2sc(C)c(C)c12)C1CCS(=O)(=O)C1` (stereo not drawn) the value was -32.6%.
As to `COc1ccc(OC)c(Nc2ncnc3sccc23)c1`, the “hERG current change (%, negative = inhibition) at 1uM” value stood at 5.2%.
For `Cc1cccc(C)c1NC(=O)NC1(C(=O)NCc2ccncc2)CCCCC1`, the “hERG current change (%, negative = inhibition) at 1uM” value was 12.6%.
As to `Cc1ccc(S(=O)(=O)Nc2ccccc2CNC2CCCCC2)cc1`, the “hERG current change (%, negative = inhibition) at 1uM” value is given as 8.74%.
Turning to `COc1ccc(CCNS(=O)(=O)c2ccc3c(c2)oc(=O)n3C)cc1OC`, the “hERG current change (%, negative = inhibition) at 1uM” value is on record as 14.2%.
Regarding `CCc1c(C2(O)CCCCC2)[nH]c2ccc(C#N)cc12`, the “hERG current change (%, negative = inhibition) at 1uM” value worked out at 5.55%.
For `CCN(CC)C(=O)C1CCCN(C(=O)Nc2ccc3nsnc3c2)C1` (stereo not drawn) the value was 9.25%.
On to `CCOC(=O)N1CCC(N(CCN(C)C)C(=S)Nc2cccc(Cl)c2)CC1`, for which the “hERG current change (%, negative = inhibition) at 1uM” value is listed as -3.96%.
Consider `CCOC(=O)C(NC(=O)CC(C)C)(Nc1sc(C)c(CC)c1C#N)C(F)(F)F` (stereo not drawn), for which the “hERG current change (%, negative = inhibition) at 1uM” value amounted to 7.53%.
The same measure for `CC(C)[C@H](NC(=O)c1ccccc1)C(=O)OCC(=O)N1CCCCCC1`: 15.3%; for `CCN(CC)S(=O)(=O)c1cccc(-c2n[nH]c(=S)n2CC(C)C)c1`: 11.5%.
The same measure for `O=C(c1ccccc1)c1c[nH]c(C(=O)NCc2cccnc2)c1`: -1.51%; for `O=C(CNC(=O)c1ccco1)Nc1cc(Cl)ccc1N1CCOCC1`: 11.8%; for `CC(Oc1ccc(Br)cc1)C(=O)NCC(c1ccco1)N1CCCCC1` (stereo not drawn): 11.1%.
With `O=C(NCC1CCCO1)C1CCCN(S(=O)(=O)c2cc(Cl)ccc2Cl)C1` (stereo not drawn), the “hERG current change (%, negative = inhibition) at 1uM” value was 10.7%.
For the molecule `Cc1cc(=O)[nH]c(SCC(=O)Nc2nc3ccccc3s2)n1`, the “hERG current change (%, negative = inhibition) at 1uM” value is listed as 7.4%.
Regarding `COC(=O)c1ccc(COc2ccc(C)cc2[N+](=O)[O-])o1`, the “hERG current change (%, negative = inhibition) at 1uM” value is 13.4%.
On to `CN(C)CC1CCCCC1OC(=O)c1ccc(Cl)c(Cl)c1.Cl` (stereo not drawn), for which the “hERG current change (%, negative = inhibition) at 1uM” value was -8.41%.
For `O=C(NCCCN1CCCC1=O)C1CCN(S(=O)(=O)c2ccc(F)cc2)CC1` the value was 6.9%.
`Cc1nnc(NC(=O)CSc2nnc(Cc3cccn3C)n2-c2cccc(C)c2C)s1`: the “hERG current change (%, negative = inhibition) at 1uM” value is 12.3%.
For the molecule `COc1ccc(CNC(=O)NCc2ccc(OC)c(OC)c2)cc1OC`, the “hERG current change (%, negative = inhibition) at 1uM” value is 17.1%.
For `Cc1ccc(NC(=O)Cn2nc(C(=O)Nc3ccc(C)cc3)ccc2=O)cc1` the value was 11.8%.
As for `Cn1c(SCC(=O)N2CCOCC2)nnc1-c1ccncc1`, the “hERG current change (%, negative = inhibition) at 1uM” value was 16.5%.
On to `CCC(=O)c1cn(CC(=O)Nc2cccc(OC)c2)c2ccccc12`, for which the “hERG current change (%, negative = inhibition) at 1uM” value is on record as 20.1%.
As for `CSCC[C@H](NC(=O)Cc1c(C)c2c(cc(C)c3c(C)coc32)oc1=O)C(=O)O`, the “hERG current change (%, negative = inhibition) at 1uM” value was 11.2%.
The same measure for `Cc1nc2cc(-c3sccc3-n3cccc3)nn2c(C)c1C`: -1.06%; for `CN(C)C(=O)c1snnc1-c1ccccc1`: 15.1%.
For `Cc1ccc(Nc2nc(-c3cccs3)cs2)nc1`, the “hERG current change (%, negative = inhibition) at 1uM” value is given as 6.15%.
For the molecule `CC(C)(C)C(=O)OCC1OC(n2cnc(C(N)=O)n2)C(O)C1O` (stereo not drawn), the “hERG current change (%, negative = inhibition) at 1uM” value came out at 14.4%.
For `CCOc1cc(CNc2ccc3[nH]c(=O)[nH]c3c2)ccc1OCC(=O)NC(C)(C)C` the value was 13.8%.
`C=CCn1nc2ccccc2c1OCCO`: the “hERG current change (%, negative = inhibition) at 1uM” value stood at 15.2%.
The same measure for `CCNc1nc(NCC)nc(OCCOC(=O)Nc2ccccc2)n1`: 14.9%; for `C#CCOCCOCCOCCNc1nc(N2CCN(C(=O)Cn3cc(CCC[NH+]=C(N)N)nn3)CC2)nc(N2CCN(C(=O)[C@H]([C@@H](C)O)n3cc(CCCC[NH3+])nn3)CC2)n1.[Cl-]`: 3.48%; for `COc1ccc(SC[C@H](CC(C)C)N2CCN(CCc3ccccc3)CCC2=O)cc1`: -51.6%.
With `CCOc1ccc2[nH]c(=O)c(CN(CCO)C3(c4nnnn4C4CCCCC4)CCCCC3)cc2c1`, the “hERG current change (%, negative = inhibition) at 1uM” value is on record as -0.893%.
In the case of `Cc1cc(Cl)c2oc(C(=O)N(C)CCCN3CCOCC3)c(C)c2c1`, the “hERG current change (%, negative = inhibition) at 1uM” value is 4.34%.
The same measure for `Cc1cc2c(c(N3CCOCC3)n1)C(=O)OC2`: 14.5%; for `COc1cc(NC(=O)CCNC(=O)Cn2ccc3ccccc3c2=O)cc(OC)c1OC`: 14.9%.
The same measure for `O=C(NCc1ccc2c(c1)OCO2)c1ccccc1`: 0.0534%.

Source of the values: publication PMC4336329 (PLoS ONE, 2015).
